Assay results as given in PubChem BioAssay AID1347165 (National Center for Advancing Translational Sciences (NCATS), 2019).
The whole screen tested about 220,000 compounds, of which about 5,700 (2.6%) were called active. The inconclusive results got no clear call from the source; some entries with a clear call stand among them for comparison. Calls follow the shape of the dose curve; as a rule, active = well fitted inhibition curve with a large enough effect; inconclusive = small, poorly fitted or top-dose-only effect; inactive = no such curve, though single readings can be large or run the other way. Where the call is inconclusive, the potency comes from a doubtful curve fit.

These compounds were tested against Lysine-specific demethylase 5B (Homo sapiens) (UniProt Q9UGL1) (assay: Primary screen for KDM5B Histone Demethylases FDH-coupled qHTS). Conditions: FDH-coupled NADH fluorescence (FDH is formaldehyde dehydrogenase); activity change, negative = inhibition: at 57.7 µM (top of the series) unless noted.
Method in brief: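 Measured: NADH fluorescence change, 30 min, RT. System: KDM5BΔAP 200 nM final, H3K4me3 peptide, α-KG, Fe(II), ascorbate, NAD⁺ plus FDH, pH 7.5 HEPES. Compounds: titrated, 10 min pre-incubation with enzyme.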
Also: nearly all actives have a fitted effect of over 70% in size.
For activity change, negative = inhibition in this document: 0% is about no effect.
Potency is read from the fitted curve at half-maximal effect; tags tell the direction and shape of the fitted curve.

Sequence of UniProt Q9UGL1 (Q9UGL1 whole entry, looked up): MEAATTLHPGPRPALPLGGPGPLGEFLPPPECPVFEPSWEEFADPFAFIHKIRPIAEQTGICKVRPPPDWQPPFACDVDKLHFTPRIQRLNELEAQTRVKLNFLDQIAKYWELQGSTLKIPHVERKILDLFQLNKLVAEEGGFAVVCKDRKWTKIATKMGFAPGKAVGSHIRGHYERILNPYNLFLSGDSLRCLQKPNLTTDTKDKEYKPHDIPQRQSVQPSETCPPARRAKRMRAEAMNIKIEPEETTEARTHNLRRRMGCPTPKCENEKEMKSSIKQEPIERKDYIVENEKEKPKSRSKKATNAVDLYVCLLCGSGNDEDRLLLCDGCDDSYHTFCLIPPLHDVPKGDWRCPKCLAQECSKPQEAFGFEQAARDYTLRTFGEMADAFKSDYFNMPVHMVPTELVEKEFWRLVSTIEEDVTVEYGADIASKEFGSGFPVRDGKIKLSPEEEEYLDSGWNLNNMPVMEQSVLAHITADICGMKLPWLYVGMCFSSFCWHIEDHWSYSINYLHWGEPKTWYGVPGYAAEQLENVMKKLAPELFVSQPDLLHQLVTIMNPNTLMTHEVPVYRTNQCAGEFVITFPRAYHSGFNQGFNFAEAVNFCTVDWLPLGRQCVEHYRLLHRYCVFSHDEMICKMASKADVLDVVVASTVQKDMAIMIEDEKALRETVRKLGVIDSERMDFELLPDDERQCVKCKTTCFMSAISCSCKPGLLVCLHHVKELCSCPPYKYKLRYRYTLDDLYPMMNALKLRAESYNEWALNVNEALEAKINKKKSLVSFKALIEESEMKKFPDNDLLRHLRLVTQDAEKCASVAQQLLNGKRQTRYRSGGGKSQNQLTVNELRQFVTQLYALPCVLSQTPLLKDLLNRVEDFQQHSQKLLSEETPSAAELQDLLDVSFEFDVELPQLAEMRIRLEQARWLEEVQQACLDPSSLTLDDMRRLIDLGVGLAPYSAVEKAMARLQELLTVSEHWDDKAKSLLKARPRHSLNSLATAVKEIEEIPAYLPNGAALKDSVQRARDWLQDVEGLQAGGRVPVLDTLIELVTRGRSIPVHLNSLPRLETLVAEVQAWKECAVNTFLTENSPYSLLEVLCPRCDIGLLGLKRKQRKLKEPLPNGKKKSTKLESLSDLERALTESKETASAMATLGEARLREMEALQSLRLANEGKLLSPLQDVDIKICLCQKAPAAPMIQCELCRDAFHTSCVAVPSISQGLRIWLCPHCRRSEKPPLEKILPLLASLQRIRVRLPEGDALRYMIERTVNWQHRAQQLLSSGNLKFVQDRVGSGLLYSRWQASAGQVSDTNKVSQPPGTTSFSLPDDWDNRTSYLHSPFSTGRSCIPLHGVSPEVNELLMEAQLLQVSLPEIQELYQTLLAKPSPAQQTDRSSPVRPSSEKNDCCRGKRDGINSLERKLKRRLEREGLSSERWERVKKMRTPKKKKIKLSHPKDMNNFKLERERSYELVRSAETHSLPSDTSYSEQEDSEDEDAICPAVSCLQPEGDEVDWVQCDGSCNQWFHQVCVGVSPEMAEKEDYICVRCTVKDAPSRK

Q: For `CCOc1ccccc1NC(=O)Nc1ccc(CN2CCOCC2)cc1`, which “activity change, negative = inhibition” value is on record?
A: inactive: 9.14%

Q: `Cc1ccc2[nH]c3c(c2c1)CCCC3` was tested. Which Potency did it give?
A: inconclusive: 25.1 µM [inhibitor, single point]

Q: Which Potency does the source give for `Cc1ncsc1CN1CCC2(CC1)CC(CC(=O)NC1CC1)CCO2` (stereo not given) here?
A: inconclusive: 7.08 µM [inhibitor, single point]

Q: How did the “activity change, negative = inhibition” value turn out when `COc1ccc(CCNC(=O)CSc2nnnn2-c2c(C)cccc2C)cc1OC` was run?
A: inactive: -7.83%

Q: How did the Potency turn out when `COc1ccc(OC)c(Nc2nc(NCCc3ccccc3)nc3c2cnn3-c2ccccc2)c1` was run?
A: inconclusive: 28.2 µM [inhibitor, partial curve, poor fit]

Q: Which Potency does the source give for `COCCN1CCOc2nc(-c3cccc(OC)c3F)ncc2C1=O` here?
A: inconclusive: 31.6 µM [inhibitor, partial curve, poor fit]

Q: How did the Potency turn out when `CC(=O)c1ccc(C(=O)N(Cc2cccnc2)c2nc3c(Cl)cccc3s2)cc1` was run?
A: inconclusive: 15.8 µM [inhibitor, partial curve, poor fit]

Q: For `CCOCCCNC(=O)Nc1cc(C(=O)NCc2ccc(C(C)C)cc2)ccc1N1CCCC1`, which Potency is on record?
A: inconclusive: 39.8 µM [inhibitor, single point]

Q: Which Potency does the source give for `CC(C)Nc1ncc(C(=O)NC2CC(=O)N(Cc3cccc(F)c3)C2)cn1` (stereo not given) here?
A: active: 22.4 µM

Q: How did the “activity change, negative = inhibition” value turn out when `Cc1ccc(CNC(C)CN2CCCCC2)cc1` (stereo not given) was run?
A: inactive: 12.5%

Q: For `CCCc1noc(-c2ccn3c(CNC(=O)C(C)Oc4ccccc4)nnc3c2)n1` (stereo not given), which Potency is on record?
A: active: 25.1 µM

Q: Which Potency does the source give for `O=C(/C=C/c1ccco1)Oc1cccc2cccnc12` here?
A: inconclusive: 25.1 µM [inhibitor, single point]

Q: How did the “activity change, negative = inhibition” value turn out when `Cc1nc(NCC(C)C)sc1C(=O)NCc1ccco1` was run?
A: inactive: -28.3%

Q: `CCN1C(C(=O)c2ccccc2)=C(OC(=O)COc2ccccc2)c2ccccc2S1(=O)=O` was tested. Which Potency did it give?
A: inconclusive: 7.94 µM [inhibitor, partial curve, poor fit]

Q: With `O=C(NCCCN1CCN(c2ccccc2)CC1)c1nnc(Cc2ccc(F)cc2)o1` as the compound, how does the Potency read?
A: inconclusive: 39.8 µM [inhibitor, single point]

Q: For `CN(Cc1ccc(F)cc1)c1ccc2ncc(Nc3ccc(CCO)cc3)n2n1`, which “activity change, negative = inhibition” value is on record?
A: inactive: -5.32% [at 86.2 µM]

Q: Which Potency does the source give for `Cn1cc(CN2C[C@@H](F)[C@@H](OCc3nc4ccccc4n3C)C2)c2ccccc21` here?
A: inconclusive: 35.5 µM [inhibitor, single point]

Q: How did the Potency turn out when `CCn1cc(S(=O)(=O)N2CCC3(CC2)CC2C(=O)NCCN2C3)cn1` (stereo not given) was run?
A: inconclusive: 20 µM [inhibitor, partial curve, poor fit]

Q: With `c1csc(-c2nc3nccc(-c4ccncc4)n3n2)c1` as the compound, how does the Potency read?
A: active: 28.2 µM

Q: How did the “activity change, negative = inhibition” value turn out when `COC(=O)[C@@H]1Cc2ncn(Cc3ccc(Cl)cc3)c2CN1S(=O)(=O)Cc1ccccc1` was run?
A: inactive: 4.5%

Q: For `C=CCN(CC=C)C(=O)c1cc(-c2ccc(OC)cc2)nc2ccccc12`, which Potency is on record?
A: inconclusive: 20 µM [inhibitor, partial curve, poor fit]

Q: `S=c1sc(SCc2ccccc2)c(SCc2ccccc2)s1` was tested. Which Potency did it give?
A: inconclusive: 22.4 µM [inhibitor, partial curve, poor fit]

Q: How did the Potency turn out when `COCC(=O)N1CCC(O)(c2ccccc2)[C@H](N2CCCC2)C1` (stereo not given in full) was run?
A: inconclusive: 6.31 µM [inhibitor, partial curve]

Q: Which Potency does the source give for `CCOC(=O)c1ccccc1Nc1cc(C)nc2nc(-c3ccco3)nn12` here?
A: inconclusive: 31.6 µM [inhibitor, single point]

Q: With `COCCN(C)C[C@@H]1CN(c2cc(C)c3ccc(SC)cc3n2)C[C@@H]1CO` as the compound, how does the Potency read?
A: active: 28.2 µM

Q: Which “activity change, negative = inhibition” value does the source give for `COc1cccc2sc(N3CCN(C(=O)CS(=O)(=O)c4ccc(Cl)cc4)CC3)nc12` here?
A: inactive: -24.2%

Q: For `O=C(NC1CCSc2c(F)cccc21)c1cc2c(s1)CCCC2` (stereo not given), which “activity change, negative = inhibition” value is on record?
A: inactive: -17.1%

Q: With `O=C(NCCN1CCOCC1)c1cc(-c2ccc(Cl)s2)nc2ccccc12` as the compound, how does the Potency read?
A: inconclusive: 1.78 µM [inhibitor, partial curve, poor fit]

Q: `COc1cccc(CNc2ncc(-c3ccc(Br)cc3)n2C)c1` was tested. Which Potency did it give?
A: inconclusive: 7.94 µM [inhibitor, partial curve, poor fit]

Q: `COc1ccc(-c2cc3c(cn2)CN(Cc2cccnc2)CCN3)cc1F` was tested. Which Potency did it give?
A: active: 35.5 µM

Q: `COc1cccc(CCC(=O)N2CCC3(CC2)N=C(c2cccc(Br)c2)NO3)c1` was tested. Which Potency did it give?
A: inconclusive: 17.8 µM [inhibitor, partial curve]

Q: For `Cc1ccc2nc(NCC(=O)NN)nc(-c3ccccc3)c2c1`, which Potency is on record?
A: inconclusive: 39.8 µM [inhibitor, single point]

Q: Which Potency does the source give for `CCC(CC)C(=O)Oc1ccc2c(C)cc(=O)oc2c1` here?
A: inconclusive: 20 µM [inhibitor, partial curve, poor fit]

Q: Which “activity change, negative = inhibition” value does the source give for `COc1ccc(SCCC(=O)OCc2ccc(C#N)cc2)cc1` here?
A: inactive: 11.4%

Q: How did the Potency turn out when `O=C(NCCCSc1ccccc1)c1cc(Br)ccc1O` was run?
A: inconclusive: 28.2 µM [inhibitor, single point]

Q: How did the “activity change, negative = inhibition” value turn out when `O=C(/C=C/c1ccccc1)Nc1cccc(Oc2ccccc2)c1` was run?
A: inactive: -23.2%

Q: `CC(Sc1ccc(Cl)cc1)C(=O)OCc1nc(N)nc(Nc2ccccc2)n1` (stereo not given) was tested. Which “activity change, negative = inhibition” value did it give?
A: inactive: -14.6%

Q: How did the Potency turn out when `N#Cc1ccc(F)c(COC(=O)c2ccc(N3CCOCC3)nc2)c1` was run?
A: inconclusive: 20 µM [inhibitor, partial curve, poor fit]

Q: Which “activity change, negative = inhibition” value does the source give for `COc1cc(OC)c(OC)cc1CC1C(=O)Nc2ccc(Br)cc21` (stereo not given) here?
A: inactive: -8.15%

Q: For `CN1CCN(C(=O)c2ccccc2C2CCNC2)CC1` (stereo not given), which Potency is on record?
A: inconclusive: 17.8 µM [inhibitor, partial curve, poor fit]

Q: Which Potency does the source give for `COc1ccc(-c2nc3ccc(NS(C)(=O)=O)cc3o2)cc1` here?
A: inconclusive: 31.6 µM [inhibitor, partial curve, poor fit]

Q: With `CN1C(=O)c2cccn2CC1CNC(=O)c1nccn1C` (stereo not given) as the compound, how does the “activity change, negative = inhibition” value read?
A: inactive: 1.93%

Q: For `Cc1sc(NC(=O)COc2ccccc2)c(C#N)c1C`, which Potency is on record?
A: inconclusive: 25.1 µM [inhibitor, single point]

Q: How did the Potency turn out when `COc1ccc2c(c1)CCN=C2C[C@H]1CN(C(=O)Nc2ccccc2)CC[C@H]1CC(=O)O` was run?
A: inconclusive: 31.6 µM [inhibitor, single point]

Q: `COc1ccc(-c2cc(C(=O)N3CCOC(C)C3)c3ccccc3n2)cc1OC` (stereo not given) was tested. Which “activity change, negative = inhibition” value did it give?
A: inactive: -30.7%

Q: With `CCOC(=O)c1cc(-c2ccccc2)n(CCC(=O)Nc2ccc(C(F)(F)F)cc2)c1C` as the compound, how does the Potency read?
A: inconclusive: 17.8 µM [inhibitor, partial curve, poor fit]

Q: With `Cc1cccc(C(=O)Nc2cccc(C(=O)N/N=C/c3cccc(C)n3)c2)c1` as the compound, how does the Potency read?
A: inconclusive: 28.2 µM [inhibitor, single point]

Q: For `O=C(NCCn1cc(SCc2cccc(F)c2)c2ccccc21)c1cccc(C(F)(F)F)c1`, which Potency is on record?
A: inconclusive: 28.2 µM [inhibitor, partial curve, poor fit]

Q: `CC(C)c1ccc(-c2nc3cc(N)ccc3o2)cc1` was tested. Which Potency did it give?
A: inconclusive: 25.1 µM [inhibitor, partial curve, poor fit]

Q: How did the Potency turn out when `CSc1ccc(/C=N/Nc2ccc(F)cc2)cc1` was run?
A: inconclusive: 12.6 µM [inhibitor, partial curve, poor fit]

Q: `O=C(NCCOCCO)C(=O)Nc1c2c(nn1-c1ccc(F)cc1)CSC2` was tested. Which Potency did it give?
A: inconclusive: 35.5 µM [inhibitor, single point]

Q: With `O=C(NC1CCCCC1)N[C@H]1[C@H](O)[C@@H](N2CCCCC2)[C@@H]2OC[C@H]1O2` as the compound, how does the Potency read?
A: inconclusive: 35.5 µM [inhibitor, single point]

Q: `COc1cc(Cl)c(C)cc1-n1cc(C(=O)c2cc(C)ccc2O)cc(C#N)c1=O` was tested. Which “activity change, negative = inhibition” value did it give?
A: inactive: 2.18%

Q: `Fc1ccc(-c2nc(-c3cccs3)c(-c3cccs3)[nH]2)cc1` was tested. Which Potency did it give?
A: inconclusive: 17.8 µM [inhibitor, partial curve, poor fit]

Q: Which Potency does the source give for `O=C(NC1CCCCCC1)c1ccc2nccn2c1` here?
A: active: 28.2 µM

Q: With `CCOCCCNC(=O)c1cc(-c2cccs2)nc2ccccc12` as the compound, how does the Potency read?
A: inconclusive: 22.4 µM [inhibitor, partial curve, poor fit]

Q: How did the Potency turn out when `CC(C)c1noc(-c2cccn3c(CNC(=O)c4ccccn4)nnc23)n1` was run?
A: active: 25.1 µM

Q: With `O=C(O)c1ccc(-c2cc3ccccc3oc2=O)cc1` as the compound, how does the Potency read?
A: inconclusive: 12.6 µM [inhibitor, partial curve, poor fit]

Q: For `O=C(O)C(c1c[nH]c2ccc(Cl)cc12)N1CCCN(c2ccc(C(F)(F)F)cn2)CC1` (stereo not given), which “activity change, negative = inhibition” value is on record?
A: inactive: -6.83%

Q: Which Potency does the source give for `CC(=O)Nc1ccc(CN2CCCC23Cc2ccccc2CN(C(C)=O)C3)cc1` (stereo not given) here?
A: inconclusive: 39.8 µM [inhibitor, partial curve]

Q: Which Potency does the source give for `CC(C)C(=O)N1Cc2ccccc2CC2(CCCCN2CC2CCNC2)C1` (stereo not given) here?
A: inconclusive: 89.1 µM [inhibitor, partial curve, poor fit]

Q: With `Cc1ccccc1NC(=O)c1ncoc1-c1cccs1` as the compound, how does the “activity change, negative = inhibition” value read?
A: inactive: -10.7%

Q: Which “activity change, negative = inhibition” value does the source give for `C=CCOC(=O)N(C)Cc1cn([C@@H]2CN[C@H](C(=O)NC)C2)nn1` here?
A: inactive: -18.3%

Q: With `CN(C)c1ccc([N+](=O)[O-])cc1` as the compound, how does the “activity change, negative = inhibition” value read?
A: inactive: 12%

Q: With `O=C(NCc1ccc(F)cc1F)c1cc2n(n1)CC(c1ccc3c(c1)OCO3)OC2` (stereo not given) as the compound, how does the Potency read?
A: active: 28.2 µM

Q: With `CCn1cc(S(=O)(=O)N2CC(F)(F)C[C@H]2c2nc(C)no2)cn1` as the compound, how does the Potency read?
A: inconclusive: 3.16 µM [inhibitor, full curve]

Q: Which “activity change, negative = inhibition” value does the source give for `CCOC(=O)C(NC(=O)C1Cc2ccccc2C(=O)O1)C(=O)OCC` (stereo not given) here?
A: inactive: 33%

Q: With `Cc1noc(-c2cccs2)c1C(=O)NCCC(c1ccccc1)c1ccccc1` as the compound, how does the Potency read?
A: active: 35.5 µM

Q: For `COc1ccc(CN2CCc3oc(C)c(C(=O)N4CCN(C(C)=O)CC4)c3C2)cc1`, which Potency is on record?
A: inconclusive: 35.5 µM [inhibitor, partial curve, poor fit]

Q: With `COc1ccc(-c2c3c(=O)n(C)c(=O)n(C)c3cn2-c2cccc(N)c2)cc1` as the compound, how does the Potency read?
A: inconclusive: 22.4 µM [inhibitor, partial curve, poor fit]
